Experimental data as given in paper PMC4336329 (PLoS ONE, 2015).
Screen size: about 310,000 compounds; about 14,000 (4.5%) showed an effect of 50% or more. Effects have a minus sign here. The list shows a part of the results.

molecular target: human ether-à-go-go-related gene (hERG) potassium channel (human, UniProt Q12809); assay: primary screen, population patch clamp on CHO cells stably expressing hERG
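Further: peak tail current of the secondary pulse compared with the same well before compound.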

human ether-à-go-go-related gene (hERG) potassium channel, sequence (Q12809 whole entry, looked up): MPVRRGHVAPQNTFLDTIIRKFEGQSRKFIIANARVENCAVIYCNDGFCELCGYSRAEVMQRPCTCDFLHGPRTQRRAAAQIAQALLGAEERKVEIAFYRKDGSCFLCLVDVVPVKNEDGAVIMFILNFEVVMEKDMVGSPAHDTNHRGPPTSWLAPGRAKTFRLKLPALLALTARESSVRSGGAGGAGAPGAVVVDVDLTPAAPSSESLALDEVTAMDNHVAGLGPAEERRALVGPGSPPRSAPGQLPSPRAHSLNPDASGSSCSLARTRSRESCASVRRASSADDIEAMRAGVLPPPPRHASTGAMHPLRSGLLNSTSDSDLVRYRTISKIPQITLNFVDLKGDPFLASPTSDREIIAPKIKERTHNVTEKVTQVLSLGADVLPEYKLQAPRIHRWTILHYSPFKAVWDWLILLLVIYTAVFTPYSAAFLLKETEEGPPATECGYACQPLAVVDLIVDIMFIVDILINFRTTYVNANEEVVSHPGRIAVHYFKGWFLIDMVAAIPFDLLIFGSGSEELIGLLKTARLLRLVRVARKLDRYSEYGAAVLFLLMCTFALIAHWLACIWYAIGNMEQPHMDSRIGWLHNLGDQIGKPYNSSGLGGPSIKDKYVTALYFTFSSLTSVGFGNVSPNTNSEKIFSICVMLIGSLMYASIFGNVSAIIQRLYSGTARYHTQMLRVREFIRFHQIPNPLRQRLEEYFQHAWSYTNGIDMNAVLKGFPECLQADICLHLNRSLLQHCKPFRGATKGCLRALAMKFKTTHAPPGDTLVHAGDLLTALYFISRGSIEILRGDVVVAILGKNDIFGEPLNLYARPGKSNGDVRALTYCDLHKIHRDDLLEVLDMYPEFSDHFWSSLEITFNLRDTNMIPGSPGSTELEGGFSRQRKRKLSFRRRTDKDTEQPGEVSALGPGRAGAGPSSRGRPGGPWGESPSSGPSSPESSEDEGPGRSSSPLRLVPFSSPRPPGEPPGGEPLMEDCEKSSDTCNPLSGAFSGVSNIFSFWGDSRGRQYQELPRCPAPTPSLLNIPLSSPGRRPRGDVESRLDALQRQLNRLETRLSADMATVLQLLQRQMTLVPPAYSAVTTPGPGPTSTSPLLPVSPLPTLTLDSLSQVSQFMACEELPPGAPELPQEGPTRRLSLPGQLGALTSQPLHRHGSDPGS

Row | Compound | hERG current change (%, negative = inhibition) at 10uM
1 | CCOc1cc(C2C(C(C)=O)=C(O)C(=O)N2CCc2c[nH]c3ccccc23)ccc1O (stereo not drawn) | 15.4%
2 | O=[N+]([O-])c1cccc(Nc2c3ccccc3nc3ccccc23)c1 | -11.5%
3 | O=Cc1ccc(N2CCCCCC2)cc1 | -0.897%
4 | CCC(C)(C)NC(=O)CN(C(=O)CNS(=O)(=O)c1ccc(C)cc1)c1ccc2c(c1)OCCO2 | -5.52%
5 | Cn1cnc(C(F)(F)F)c1-c1ccc([N+](=O)[O-])cc1 | -20.3%
6 | CCC(=NCCN1CCOCC1)c1c(O)n(C2CCCCC2)c(=O)[nH]c1=O | -6.76%
7 | COc1ccccc1/C(C)=N/NC(=O)c1nnn(-c2nonc2N)c1C(C)C | -7.98%
8 | Cc1ccc2[nH]c(CCN(C)C)c(CN3CCOCC3)c2c1 | -2.2%
9 | CCN(CC)C(=O)c1sc2nc(-c3ccccn3)[nH]c(=O)c2c1C | -2.72%
10 | CC(=O)c1cc(C#N)c(N2CCCCC2)nc1C | -3.14%
11 | COc1cccc(CN2CCN(Cc3[nH]c4ccccc4c3C)CC2CCO)c1 (stereo not drawn) | -60.5%
12 | COc1ccccc1N1CCN(CCCNC(=O)Cn2ncc3c([nH]c4ccccc43)c2=O)CC1 | -68.6%
13 | CC(C)c1ccc(S(=O)(=O)N2CCN(CC(=O)Nc3ccc(Cl)cc3F)CC2)cc1 | -15.9%
14 | COC(=O)c1ccccc1S(=O)(=O)N(CCCO)Cc1cc2c(C)ccc(C)c2[nH]c1=O | -14.6%
15 | Cn1c(CN2CCN(S(C)(=O)=O)CC2)nc2cc([N+](=O)[O-])ccc21 | -0.37%
16 | Cc1ccc(C)c(NC(=O)CSc2ccc(-c3cccs3)nn2)c1 | 0.0898%
17 | CC(C)CN(C(=O)COC(=O)c1ccccc1SCC(=O)NC1CCCCCC1)C1CCS(=O)(=O)C1 (stereo not drawn) | -0.144%
18 | Cc1ccc(-n2nc3c(=O)n(CCCC(=O)NCCN4CCN(C)CC4)nc(C)c3c2C)cc1 | 16.8%
19 | Cc1ccnc(NC(=O)c2cccc(S(=O)(=O)N3CCCc4ccccc43)c2)c1 | -1.95%
20 | CCCOc1ccccc1-n1sc2c(c1=S)-c1cc(OC)cc3c1N(C(=O)C3=O)C2(C)C | 18.5%
21 | O=C(NC(=O)c1ccc(F)cc1)Nc1nc(-c2cccs2)cc(C(F)(F)F)n1 | 12.2%
22 | COc1ccc(NC(=O)C(=O)NNC(=O)c2ccc(Cl)cc2Cl)cc1 | 2.27%

Row | Compound | hERG current change (%, negative = inhibition) at 10uM
23 | Cc1ccc(C(=O)Nc2ccc(S(=O)(=O)N3CCCC3)cc2)s1 | 12.8%
24 | C/C=C/C=N/Nc1nc(-c2ccc([N+](=O)[O-])cc2)cs1 | -7.25%
25 | Cc1cccc(CN2C(=O)N/C(=C/c3cc(C)n(-c4ccccn4)c3C)C2=O)c1 | 8.39%
26 | Cc1cccc(S(=O)(=O)NCCC(=O)OC(C)C(=O)NC(=O)NC2CCCCC2)c1 (stereo not drawn) | -20.8%
27 | c1coc(-c2cc(C3CCNCC3)[nH]n2)c1 | 15.5%
28 | CC(=O)c1c(C)[nH]c(C(=O)CSc2nnc(C3CCCCC3)n2N)c1C | -1.29%
29 | CCOc1ccccc1C(=O)N[C@H](C(=O)NCc1ccccc1)C(C)C | 12.7%
30 | CC(NC(=O)COC(=O)c1ccc(N(C)C)cc1)c1ccccc1 (stereo not drawn) | 3.44%
31 | COc1ccc(OC)c(-c2nnc(NC(=O)C(C)Sc3nncn3C)s2)c1 (stereo not drawn) | 3.38%
32 | COC(=O)CNC(=O)c1ccc(C)s1 | -0.614%
33 | C/C(=N\NC(=O)OC(C)(C)C)c1cccc([N+](=O)[O-])c1 | -11.3%
34 | CN(c1ccccc1)S(=O)(=O)c1cc(Cl)ccc1Cl | -17.7%
35 | COc1ccc(NC(=O)C2=CC(c3ccc(OC)c(OC)c3)=NS(=O)(=O)N2C)cc1 | -4%
36 | O=C1CC(N2CCC(O)CC2)C(=O)N1c1ccc(Br)cc1 (stereo not drawn) | -6.28%
37 | CC(=O)c1sc(Nc2nc3ccc(F)cc3s2)nc1C | 8.71%
38 | NCC(=O)N1CCC(C(=O)N[C@@H](Cc2c[nH]c3ccccc23)C(=O)O)CC1 | 23.6%
39 | Oc1ccc(C2=NN(c3ccccc3)C(c3ccc(F)cc3)C2)cc1 (stereo not drawn) | 3.99%
40 | Cc1cc2cc(CNC(=O)c3ccc4c(c3)OCO4)ccc2n1C | 12.9%
41 | COCCc1nnc(NC(=O)Cc2ccccc2)s1 | 4.67%
42 | O=C(CCCN1C(=O)c2cccnc2C1=O)N1CC(=O)N(CCc2ccccc2)C(=O)C1 | -9.44%
43 | CCOc1ccc2nc(NC(=O)CSc3cn[nH]n3)sc2c1 | -2.2%
44 | COC(=O)[C@@H]1C[C@@]2(O)[C@H](O)[C@H](O)[C@H](O)C[C@H]2N1Cc1ccc(-c2ccccc2)cc1 | 14.5%

Row | Compound | hERG current change (%, negative = inhibition) at 10uM
45 | Cl.OCCNCc1cccc(Br)c1 | -1.31%
46 | COC(=O)CNC(=O)C(C)(C)Oc1ccc(Cl)cc1 | -1.56%
47 | COC(=O)Nc1ncc(CN2C(=O)c3ccccc3C2=O)s1 | -23%
48 | COc1ccccc1CCC(=O)OCC(=O)NC1CC1 | 7.29%
49 | O=S(=O)(c1ccc(Oc2ccc3oc4ccccc4c3c2)nc1)N1CCCC1 | -4.38%
50 | CC1CCN(C(=O)C2CCCN2S(=O)(=O)c2ccc(Cl)cc2)CC1 (stereo not drawn) | 8.47%
51 | CCOc1ccc(S(=O)(=O)N(C)c2ccc(OCC(=O)NCc3ccc(C(=O)OC)cc3)cc2)cc1 | -23.9%
52 | Cc1cc(C(=O)N2CCN(S(C)(=O)=O)CC2)sc1-c1ccccc1 | 9.81%
53 | CC(C)(O)C#Cc1ccc(CN2CCN(Cc3ccsc3)C(CCO)C2)cc1 (stereo not drawn) | -21.6%
54 | COC(=O)c1cc2occc2n1Cc1nc(-c2ccccc2F)oc1C | 8.86%
55 | O=C(O)C(F)(F)F.O=C1C(Cc2ccccc2)Nc2ncnc(N3CCc4ccccc4C3)c2N1Cc1ccc(Cl)cc1 (stereo not drawn) | 10%
56 | Cc1cccc2cc(C(c3nnnn3Cc3ccccc3)N3CCN(c4ccccc4)CC3)c(=O)[nH]c12 (stereo not drawn) | -29.1%
57 | CC/C(=N/NC(=O)CNc1ccc(Cl)cc1C)c1ccccc1 | 8.15%
58 | Cc1cc(C(=O)O)ccc1-n1c(C)ccc1C | 4.49%
59 | CCOC(=O)c1ccc(NC(=O)C23CCC(C)(C(=O)O2)C3(C)C)cc1 (stereo not drawn) | -6.49%
60 | O=C(COC(=O)c1ccc(Br)cc1)NCc1ccccc1 | 13.8%
61 | O=C(CSc1nc(N2CCCCC2)nc(N2CCCCC2)n1)c1ccccc1 | -2.16%
62 | COc1ccc(C2(c3ccc(OC)cc3)NC(=O)N(CC(=O)Nc3ccc(N4CCOCC4)cc3)C2=O)cc1 | -3.27%
63 | CN(CCCCCCN(C)Cc1ccccc1O)Cc1ccccc1O.O=C(O)C(=O)O | 5.09%
64 | C=CCSc1nnc(-c2cc3c(C(F)(F)F)nn(C)c3s2)n1C | -3.85%
65 | CCCCNC(=O)CSc1nc2ccccc2c(=O)n1CCNC(C)=O | -12.3%
66 | CN(CC(=O)N1CCN(Cc2ccccc2)CC1)S(=O)(=O)c1ccc(Br)cc1 | -40.2%

Row | Compound | hERG current change (%, negative = inhibition) at 10uM
67 | COc1ccc(-c2csc(N3C(=N)SCC3=O)n2)cc1 | -26.8%
68 | COc1cc(/C=C2/CCCC(C(=O)C(F)(F)F)=C2O)ccc1O | 10.4%
69 | O=C(Cn1nc(C(F)(F)F)c2c1CCCC2)N1CCOCC1 | 20.1%
70 | CC(Cc1ccccc1)NC(N)=O (stereo not drawn) | 17.5%
71 | O=C(CNC(=O)c1ccc(Cl)c([N+](=O)[O-])c1)NCC1CCCO1 (stereo not drawn) | 13.7%
72 | N#Cc1ccsc1NC(=O)CSc1nnnn1-c1ccc(O)cc1 | -6.98%
73 | ON(Cc1c(F)cccc1Cl)Cc1c(F)cccc1Cl | 5.68%
74 | O=C(C1CCN(C2CCN(C/C(Cl)=C/c3ccccc3)CC2)CC1)N1CCOCC1 | -64.1%
75 | CN(C)c1ccc(CNn2cnnc2SCC(=O)NC(C)(C)C)cc1 | 23.4%
76 | CCCCn1c(CCCNC(=O)c2ccco2)nc2ccccc21 | -40.5%
77 | CCCCN1CC2([N+](=O)[O-])C=CC(=O)C([N+](=O)[O-])(C1)C2CC(=O)c1ccccc1 (stereo not drawn) | 7.36%
78 | Cc1cc(C)c2c(N)c(C(=O)Nc3cccc(C)c3C)sc2n1 | 9.59%
79 | Cc1cc(Nc2ccc(Cl)cc2)n2nnnc2n1 | 7.83%
80 | COc1ccc(-c2ccc([C@H]3[C@H]4C=CC[C@@H](C)[C@@H]4C(=O)N3Cc3ccccc3)c(F)c2)cc1OC | 6.16%
81 | Cc1ccc2cc(C#N)c(NCCNC(=O)C3CC3)nc2c1C | 7.18%
82 | Cc1cc(C)n(CCNc2nc3nonc3nc2N2CCCCC2)n1 | -3.06%
83 | CC(C)COC(=O)CCn1[nH]c(=O)c2ccccc2c1=O | 7.42%
84 | O=C(CSCc1ccc(Cl)cc1)N/N=C/c1ccco1 | -3.12%
85 | COc1ccc(CN2C(=O)CN=C2Nc2cccc(C)c2C)cc1.Cl | -20.1%
86 | COc1ccc(NC(=O)Cn2cc(C(=O)c3ccco3)c3ccccc32)cc1 | -15%
87 | COC(=O)Cc1cc(=O)n2[nH]c(C(F)(F)F)nc2n1 | 11.1%
